# Reference: PubChem BioAssay (NCATS)
# Inconclusive means that the source gave no clear call. Such entries were picked first, then a sample of the others. No potency is given beside an inconclusive call; the fits are too rough. Calls of active or inactive are those of the source. Calls come from the whole dose curve; as a rule, active = well fitted curve in the direction sought with a large enough effect; inconclusive = small, poorly fitted or top-dose-only effect, or another doubt; inactive = no such curve, though single readings can be large; an effect the other way counts as inactive or inconclusive.
# Experiments:
# [1] = NS1 protein of Zika virus - qHTS assay to identify small molecule inhibitors in human HEK 293 cells (AID 1347053); note: nearly all actives have a fitted effect of over 55% in size;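 for activity change, negative = inhibition: plate controls were infected untreated cells for no effect and uninfected cells for full effect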
# Outline: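 TR-FRET signal from two anti-ZIKV NS1 antibodies quantified NS1 in HEK 293 cells 24 h after MR766 infection at MOI = 0.5; compounds were added 1 h before virus. Uninfected cells and infected cells defined the NS1 normalization range.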
# [2] = qHTS of pediatric cancer cell lines to identify multiple opportunities for drug repurposing: Primary screen for DAOY cells (AID 1347090); settings: DAOY medulloblastoma viability, CellTiter-Glo luminescence, 48 h; activity change, negative = cytotoxic: at 46 µM (top of the series) unless noted; note: nearly all actives have a fitted effect of over 55% in size;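 for activity change, negative = cytotoxic: plate controls were DMSO for no effect and bortezomib for full effect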
# Outline: (§1)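 Cell viability, CellTiter-Glo luminescence; 500-1,000 cells/well, 8- or 11-point titration, 48 h compound exposure at 37 degrees C, 5% CO2. Controls: DMSO neutral, bortezomib 2.3 µM final as positive.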
# [3] = qHTS of pediatric cancer cell lines to identify multiple opportunities for drug repurposing: Primary screen for SJ-GBM2 cells (AID 1347091)
# Outline: as §1
# [4] = qHTS of pediatric cancer cell lines to identify multiple opportunities for drug repurposing: Primary screen for TC32 cells (AID 1347089); note: nearly all actives have a fitted effect of over 60% in size
# Outline: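 Luminescent ATP read-out (CellTiter-Glo) of metabolically active TC32 cells after 48 h exposure. Concentration-response curves came from 11-point (MIPE, 0.78 nM–46 µM) or 8-point (NPC, 0.59 nM–46 µM) primary titrations; follow-up used 11 points.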
# Potency is the fitted concentration of half-maximal effect; tags give direction and shape of the fitted curve.
smiles,measurement,setting,value
CCNC(=O)CCCC=CC[C@@H]1[C@H](C=CC(O)CCc2ccccc2)[C@@H](O)C[C@@H]1O (stereo not given in full),Potency,[1],inactive
same,Potency,[2],"inconclusive [cytotoxic, single point]"
O=C1c2ccccc2-[n+]2ccc3c([nH]c4ccccc43)c21,Potency,[1],active: 1.05 µM
same,Potency,[2],active: 2.96 µM
CCN(CC)CCCC(C)Nc1c2ccc(Cl)cc2nc2ccc(OC)cc12 (stereo not given),Potency,[1],"inconclusive [inhibitor, single point]"
same,Potency,[2],"inconclusive [cytotoxic, partial curve]"
same,Potency,[3],"inconclusive [cytotoxic, single point]"
CC1=C[C@@H]2[C@@H]([C@@H](O)C[C@@]3(C)[C@H]2C[C@@H](C)[C@]3(O)C(=O)CO)[C@@]2(C)Cc3cnn(-c4ccccc4)c3C=C12,Potency,[1],"inconclusive [inhibitor, single point]"
same,Potency,[4],"inconclusive [cytotoxic, partial curve, poor fit]"
same,Potency,[2],"inconclusive [cytotoxic, partial curve]"
same,Potency,[3],active: 20.9 µM
CCOC1OC(=O)C[C@H]1NC(=O)[C@@H]1CCCN1C(=O)[C@@H](NC(=O)c1ccc(N)c(Cl)c1)C(C)(C)C (stereo not given in full),Potency,[1],inactive
same,Potency,[2],"inconclusive [cytotoxic, single point]"
CC1CN(c2cc3c(cc2F)c(=O)c(C(=O)O)cn3-c2ccc(F)cc2F)CCN1 (stereo not given),"activity change, negative = inhibition",[1],inactive: -15.5% [at 4.81 µM]
same,"activity change, negative = cytotoxic",[2],inactive: 0.682% [at 4.84 µM]
